Data published in paper PMC4336329 (PLoS ONE, 2015).
Out of some 310,000 compounds screened, about 14,000 (4.5%) showed an effect of 50% or more. The effect is printed as a negative number. The list shows a part of the results.

The compounds below were run against human ether-à-go-go-related gene (hERG) potassium channel (human, UniProt Q12809) (assay: primary screen, population patch clamp on CHO cells stably expressing hERG).
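Note: peak tail current of the secondary pulse compared with the same well before compound.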

Chain of human ether-à-go-go-related gene (hERG) potassium channel (Q12809 whole entry, looked up): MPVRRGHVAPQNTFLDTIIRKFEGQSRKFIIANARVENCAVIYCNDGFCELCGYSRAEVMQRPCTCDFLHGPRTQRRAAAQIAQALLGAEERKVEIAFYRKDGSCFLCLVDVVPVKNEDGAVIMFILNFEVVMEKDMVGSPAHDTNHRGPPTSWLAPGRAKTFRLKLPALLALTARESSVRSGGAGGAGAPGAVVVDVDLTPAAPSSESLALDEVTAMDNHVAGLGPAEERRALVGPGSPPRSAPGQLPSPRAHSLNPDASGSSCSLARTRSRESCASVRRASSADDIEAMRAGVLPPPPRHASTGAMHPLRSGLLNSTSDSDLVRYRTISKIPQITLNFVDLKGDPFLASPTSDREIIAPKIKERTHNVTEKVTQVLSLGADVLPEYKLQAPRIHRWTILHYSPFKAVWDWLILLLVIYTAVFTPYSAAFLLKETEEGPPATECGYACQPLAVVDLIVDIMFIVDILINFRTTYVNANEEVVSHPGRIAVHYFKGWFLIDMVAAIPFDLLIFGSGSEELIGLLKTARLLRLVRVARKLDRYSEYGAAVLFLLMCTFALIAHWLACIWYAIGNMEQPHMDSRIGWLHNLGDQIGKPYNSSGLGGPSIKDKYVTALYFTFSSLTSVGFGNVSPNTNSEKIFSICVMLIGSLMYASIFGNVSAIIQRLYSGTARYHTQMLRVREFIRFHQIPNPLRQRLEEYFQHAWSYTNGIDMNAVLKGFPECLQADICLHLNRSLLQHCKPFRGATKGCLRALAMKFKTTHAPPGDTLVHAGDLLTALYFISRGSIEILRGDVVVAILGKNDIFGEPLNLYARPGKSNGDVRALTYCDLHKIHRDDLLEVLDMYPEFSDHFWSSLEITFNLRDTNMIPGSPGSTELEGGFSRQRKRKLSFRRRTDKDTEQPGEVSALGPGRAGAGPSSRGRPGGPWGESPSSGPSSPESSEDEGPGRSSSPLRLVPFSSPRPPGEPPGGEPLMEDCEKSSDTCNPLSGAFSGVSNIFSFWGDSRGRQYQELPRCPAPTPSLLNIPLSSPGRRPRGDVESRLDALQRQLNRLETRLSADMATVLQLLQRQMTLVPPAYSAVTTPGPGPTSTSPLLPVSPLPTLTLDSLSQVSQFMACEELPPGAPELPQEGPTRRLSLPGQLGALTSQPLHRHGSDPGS

| SMILES | hERG current change (%, negative = inhibition) at 10uM |
| --- | --- |
| Cn1nc(NC(=O)CC(C)(C)CC(=O)O)c2ccccc21 | 24.5% |
| CCC1=C(OC(=O)N(CC)CC)N2C(=O)OC(=NCCc3c[nH]c4ccccc34)[C@]2(C)[C@H]2C1=CC[C@H]1C(=O)N(CC)C(=O)[C@H]12 | -9.68% |
| OC(c1cccc(OCc2ccccc2)c1)c1nnc(-c2ccccc2)o1 (stereo not drawn) | 3.25% |
| Cc1ccc(OCC(=O)Nc2nnc(S(=O)(=O)N3CCCCCC3)s2)cc1 | 11.3% |
| Cc1ccc(NC(=O)C2CCN(S(=O)(=O)c3ccc(F)cc3)CC2)cc1 | -6.74% |
| CC[C@H](C)[C@@H]1NC(=O)c2cc([N+](=O)[O-])cc(I)c2NCC[C@@H](C(N)=O)NC(=O)[C@H](CCCN=C(N)N)NC1=O | 4% |
| CN(CCOc1ccccc1)CC(O)COc1ccccc1 (stereo not drawn) | 10.8% |
| Oc1ccc(/C=N/Nc2nn3cnnc3c3ccccc23)cc1 | 10.7% |
| Fc1ccccc1COc1ccccc1/C=N/Nc1nc(N2CCCC2)nc(N2CCCC2)n1 | 14.3% |
| COc1ccc2[nH]c3c(c2c1)CCN1C(=O)N([C@@H](C)C(=O)NC2CCN(Cc4ccccc4)CC2)C(=O)[C@]31C | -48.8% |
| O=C(CCSc1ccccc1Cl)NNC(=O)c1ccncc1 | -3.37% |
| CN(C(=O)c1cccc(S(=O)(=O)N2CCCCC2)c1)C1CCS(=O)(=O)C1 (stereo not drawn) | 2.39% |
| COc1ccccc1N1CCN(/N=C/c2cc(OC)c(OC)c(OC)c2)CC1 | 14% |
| CCc1nnc(NS(=O)(=O)c2ccc(NCc3cc(Cl)cc(Cl)c3O)cc2)s1 | 1.61% |
| COC(CNC(=O)c1ccc2c(c1)nc(C)n2-c1cccc(F)c1)OC | -8.99% |
| CCOc1ccc(-n2c(-c3ccoc3)nc3ccccc3c2=O)cc1 | -8.33% |
| COCCCNc1ncnc2c1cnn2-c1ccc(C)cc1C | -4.32% |
| CS(=O)(=O)c1nc(S(=O)(=O)c2ccc(Cl)cc2)c(NCCCN2CCCC2=O)s1 | -27.5% |
| Cc1cn2c(N)c(/C=C3\C=Nc4ccccc43)c(=O)nc2s1 | 2.43% |
| CN1N=C(C(=O)N2CCCC(N3CCN(c4ccc(F)cc4)CC3)C2)CCC1=O (stereo not drawn) | 2.78% |
| N#Cc1ccc(N2CCCNCC2)nc1 | -88.5% |

| SMILES | hERG current change (%, negative = inhibition) at 10uM |
| --- | --- |
| COc1ccccc1C(CC(=O)N1CCCC1)c1ccc2c(c1)OCO2 (stereo not drawn) | -3.05% |
| Cc1ccc(CC2CC(=O)N(CC(=O)O)C2=O)cc1 (stereo not drawn) | 12% |
| CN(C(=O)COC(=O)C1(C)CC1(Cl)Cl)c1c(N)n(Cc2ccccc2)c(=O)[nH]c1=O (stereo not drawn) | 1.11% |
| COc1ccc([N+](=O)[O-])cc1/C=N/Nc1nc(N2CCCCC2)nc(N2CCCCC2)n1 | -8.89% |
| CC(C)(C)C(=O)NC1(C(F)(F)F)C(=O)Nc2c1c(=O)[nH]c(=O)n2Cc1ccco1 (stereo not drawn) | 13.5% |
| COc1ccccc1-n1cnc(N)c1C(C)=O | -9.62% |
| COc1ccc2[nH]c3c(=O)n(Cc4ccc(C(=O)NCC5CCCO5)cc4)c(=S)[nH]c3c2c1 (stereo not drawn) | 10.7% |
| O=C(CCN1C(=O)/C(=C/c2ccc(F)cc2)SC1=S)NCCc1ccc(O)cc1 | 18.3% |
| CCOC(=O)CNC(=S)N(Cc1ccccc1)Cc1cccnc1 | -17.9% |
| CC1=NN(c2nc3ccccc3[nH]2)C(=O)C1Cc1ccccc1 (stereo not drawn) | -12.5% |
| Cc1ccc(C)c(C2(O)CC(C)N(C)CC2C)c1 (stereo not drawn) | 12.8% |
| O=C(N/N=C/c1cc([N+](=O)[O-])ccc1O)c1ccc(COc2ccc3c(c2)CCC3)o1 | 24.4% |
| Cc1nc2cc(C(F)(F)F)ccc2n1C1CCN(C(=O)N2CCOCC2)CC1 | -55.7% |
| ClC1(Cl)CC1CSc1nnc(-c2ccncc2)o1 (stereo not drawn) | -16.3% |
| CC(C)c1ccccc1NC(=O)COC(=O)/C=C/c1cccc([N+](=O)[O-])c1 | 18.4% |
| O=C(NCCCO)Nc1ccc2nc(-c3ccco3)c(-c3ccco3)nc2c1 | 12.8% |
| CCn1c(SCc2ccc(Cl)cc2Cl)nc2nc3c(cc2c1=O)CCCC3 | -0.584% |
| Fc1ccc(-c2onc3ccc(C4OCCO4)cc23)cc1 | 4.75% |
| O=C(Nc1cccc(S(=O)(=O)N2CCCC2)c1)c1ccc2c(=O)n3c(nc2c1)CCCCC3 | -57.1% |
| COc1ccccc1NC(=S)NCC1CCC(CNC(=S)Nc2ccccc2OC)CC1 (stereo not drawn) | 13.2% |
| O=C(/C=C/c1cccc([N+](=O)[O-])c1)NCCN1C(=O)S/C(=C\c2cccnc2)C1=O | -30.6% |

| SMILES | hERG current change (%, negative = inhibition) at 10uM |
| --- | --- |
| Cc1ccc(S(=O)(=O)N(C)C)cc1NC(=O)c1ccccc1Br | 8.54% |
| O=C(NCCCN1CCOCC1)C(=O)NCC1CCCO1 (stereo not drawn) | 21.7% |
| C/C(=N\N1CCCCCC1)c1c(O)n(-c2ccccc2C)c(=O)[nH]c1=O | -13.7% |
| O=C(O)CN1C(=O)c2ccc(Oc3ccc4c(c3)C(=O)N(CC(=O)O)C4=O)cc2C1=O | -2% |
| CC(=O)Nc1ccc(NC(=O)CCC(=O)OCC(=O)c2cccc([N+](=O)[O-])c2)cc1 | -14.3% |
| OC[C@H]1OC(O)[C@H](O)[C@@H]1O (stereo partly drawn) | -34.5% |
| N#Cc1nc(COc2ccccc2Cl)oc1NCc1ccc(F)cc1 | 0.159% |
| CCC1Sc2ccc(S(=O)(=O)CCC(=O)NCc3ccco3)cc2NC1=O (stereo not drawn) | 0.305% |
| O=C(NCCCn1ccnc1)C1CCCN(S(=O)(=O)c2cc(Cl)ccc2Cl)C1 (stereo not drawn) | -60.3% |
| COc1ccc(-c2csc(NC3CCCCC3)n2)c(OC)c1 | 9.68% |
| Cc1nc2ccccn2c1P(=Nc1ccccc1)(N(C)C)N(C)C | -52.5% |
| CCCn1c(SCC(=O)C(C)(C)C)nc2ccccc21.Cl | -8.31% |
| CCOC(=O)[C@@H]1[C@H]2COc3cc(OC)ccc3[C@H]2N2C(=O)N(c3cccc(Cl)c3)C(=O)[C@]12C | 12.5% |
| CN(C)C(CNC(=O)c1cc(S(=O)(=O)N(C)c2ccc(F)cc2)ccc1Cl)c1ccco1 (stereo not drawn) | -28.3% |
| Nc1ccc(S(=O)(=O)Nc2nccc(/C=C/c3cccc(Br)c3)n2)cc1 | 15.2% |
| COc1cccc(CC(NC(C)=O)C(=O)NC2CCN(S(=O)(=O)c3cccc4ccccc34)CC2)c1 (stereo not drawn) | 3% |
| Cl.Fc1ccc(CCNCc2cccc(Cl)c2)cc1 | -16.5% |
| O=S(=O)(c1cccc(F)c1)N1CCc2sccc2C1c1ccc(OC(F)(F)F)cc1 (stereo not drawn) | 10.8% |
| COc1cc(OC)cc(-c2cc3nc(C)c(CCC(=O)Nc4nc(C)cs4)c(C)n3n2)c1 | 10% |
| CCN(c1ccccc1)S(=O)(=O)c1cccc(C(=O)NCCN2CCOCC2)c1 | -15.3% |
| O=C(NCCCN1CCCCC1)C1CCCN(c2ncnc3c2nc2n3CCCCC2)C1 (stereo not drawn) | 1.8% |

| SMILES | hERG current change (%, negative = inhibition) at 10uM |
| --- | --- |
| COc1ccc(NC(=O)c2cc3ccccc3cc2OC)cc1OC | 8.27% |
| O=C1CC(c2ccccc2)CC(O)=C1C=NC1CCCC1 (stereo not drawn) | -5.2% |
| COc1ccc(OC)c(CNC(=O)C2CCN(S(=O)(=O)N3CCCC3)CC2)c1 | -6.59% |
| CCOc1ccc(N(CC(=O)Nc2cccc(Br)c2)S(C)(=O)=O)cc1 | -1.12% |
| CC(C)C(NC(=O)c1ccc(Br)cc1)C(=O)NC1=NCCS1 (stereo not drawn) | -8.44% |
| COc1ccc(OC)c(C(c2nnnn2C2CCCC2)N2CCN(c3ccccc3)CC2)c1.Cl (stereo not drawn) | -40.8% |
| CCNC(=S)N1CCc2ccccc2C1 | 2.33% |
| Cc1ccc(OCCCCNC2CCCCC2)c(C)c1.O=C(O)C(=O)O | -42.8% |
| Brc1cc2c(cc1Br)OCCOCCOCCO2 | -11.5% |
| Cc1c(C(=O)c2ccccc2)oc2ccc3ccccc3c12 | 4.87% |
| O=C1N(Cc2cccc(Cl)c2)C[C@@H]2C[C@@H](c3c[nH]c4ccccc34)N3CCC[C@@]123 | -74.8% |
| COc1cc(C)nc(N2CCCC(C(=O)NC3CCC(C)CC3)C2)n1 (stereo not drawn) | -0.336% |
| COc1ccc(Oc2ccc(C(F)(F)F)cc2NC(=O)CC(CC(=O)O)c2ccccc2)cc1 (stereo not drawn) | 10.6% |
| COC(=O)CC(NS(=O)(=O)c1cccs1)c1ccc2c(c1)OCO2 (stereo not drawn) | 16.1% |
| Cc1ccnc(NC(=O)c2ccccc2[N+](=O)[O-])c1 | 9.55% |
| CCc1ccc(/C=N/NC(=O)Cc2cccn2C)cc1 | -0.053% |
| NC(=O)c1oc2ccccc2c1NC(=O)c1ccccc1 | 3.73% |
| S=C(NCCCN1CCOCC1)N1CCN(c2nc(-c3ccccc3)cs2)CC1 | -12.8% |
| Cc1cnc(C)c(N2CCN(C(=O)C3CCC(=O)N(CCc4cccc(F)c4)C3)CC2)n1 (stereo not drawn) | -53.9% |
| COc1cccc(C(=O)NNC(=O)c2cccnc2)c1 | 20.4% |
| Cc1oc(-c2ccccc2F)nc1CN1CCC(C(=O)NCc2ccco2)CC1 | -38% |
